Assay results taken from PubChem BioAssay AID504832 (National Center for Advancing Translational Sciences (NCATS), 2011).
Among all 310,000 compounds or so, about 18,000 (5.8%) were called active. This list was built around the results that the source calls inconclusive (neither active nor inactive); the mix of calls is not that of the screen. The call rests on the fitted dose curve; in most records, active means well fitted inhibition curve with a large enough effect; inconclusive means small, poorly fitted or top-dose-only effect, or another doubt; inactive means no such curve, though single readings can be large or run the other way. No potency is given beside an inconclusive call; the fits are too rough.

assay: Primary qHTS for delayed death inhibitors of the malarial parasite plastid, 48 hour incubation; settings: P. falciparum luciferase growth in erythrocytes; series mostly up to 28.7 µM; activity change, negative = inhibition: at the top concentration
How it was run: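 In quantitative HTS format, infected erythrocytes bearing luciferase-reporter parasites were treated for a single generation at 37 C. Luminescence after adding detection reagent served as the growth measure.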
On the % scale 0 is the no-effect control and ±100 the full control effect; potency means the concentration at half of the fitted maximal effect; tags describe the fitted curve by direction and shape.

| Structure (SMILES) | Potency | activity change, negative = inhibition |
| --- | --- | --- |
| CCOC(=O)c1c(C)[nH]c(C2=NNC(=Nc3ccc(OCC)cc3)SC2)c1C | inconclusive [inhibitor, single point] | – |
| COc1ccc(S(=O)(=O)N(CC(=O)Nc2cc(C)on2)Cc2ccccc2)cc1 | inconclusive [inhibitor, partial curve, poor fit] | – |
| CCCOc1ccc(C(=O)N2CCCc3ccccc32)cc1 | inconclusive [inhibitor, single point] | – |
| O=C(N/N=C/c1cc(Cl)ccc1O)C(=O)Nc1ccccc1OC(F)(F)C(F)F | inconclusive [inhibitor, partial curve, poor fit] | – |
| COc1ccc(CCNc2cc(C)nc3c(-c4ccccc4)c(C)nn23)cc1OC | inconclusive [inhibitor, single point] | – |
| COc1cccc(C(=O)N2N=C(c3ccccn3)CC2(O)C(F)(F)F)c1 (configuration not stated) | inconclusive [inhibitor, single point] | – |
| COc1ccc(S(=O)(=O)N2Cc3ccccc3CC2C(=O)Nc2nccs2)cc1 (configuration not stated) | – | inactive: 168% |
| COc1nc(OC)nc(N2CCC(NC(=O)C(Cc3cccc(OC)c3OC)NC(C)=O)CC2)n1 (configuration not stated) | inconclusive [inhibitor, partial curve] | – |
| NC(=O)C1CCN(C2=C(NS(=O)(=O)c3ccc(Cl)cc3)C(=O)c3ccccc3C2=O)CC1 | inconclusive [inhibitor, single point] | – |
| OC(CN1CCN(Cc2ccc3c(c2)OCO3)CC1)c1c[nH]c2ccccc12 (configuration not stated) | inconclusive [inhibitor, single point] | – |
| Cc1ccc(CN=c2c([N+](=O)[O-])nn(-c3cccc(C)c3)n2O)cc1 | – | inactive: 70.1% |
| CC1=CC(=C(C#N)c2nc3ccccc3s2)C=C(C)N1CC1CCCO1 (configuration not stated) | inconclusive [inhibitor, partial curve] | – |
| Clc1ccccc1CNc1ncnc2nc[nH]c12 | inconclusive [inhibitor, single point] | – |
| COc1ccc(/C=C(/NC(=O)c2ccc(C)cc2)C(=O)NCC2CCCO2)cc1 (configuration not stated) | inconclusive [inhibitor, partial curve, poor fit] | – |
| Cc1ccccc1N(C(=O)Cn1nnc2ccccc21)C(C(=O)NCc1ccco1)c1ccncc1 (configuration not stated) | inconclusive [inhibitor, partial curve] | – |
| CC(=O)Nc1ccc(NC(=O)c2ccc(S(=O)(=O)N(C)c3ccccc3)cc2)cc1 | active: 13.1 µM | – |
| Cc1cc(NC(=O)CSc2nnc(-c3ccco3)n2C)no1 | inconclusive [inhibitor, single point] | – |
| CCOC(=O)C1CCN(S(=O)(=O)c2ccc(C)c(C(=O)NC3CCCCC3)c2)CC1 | – | inactive: 15.4% |
| COc1ccc(C(=O)C2CCCN(Cc3c(C)[nH]c4ccccc34)C2)c(OC)c1 (configuration not stated) | inconclusive [inhibitor, single point] | – |
| CCCN(CCC)CCCNC(=O)C(NS(=O)(=O)c1ccc2c(c1)CCC(=O)N2)c1ccccc1 (configuration not stated) | inconclusive [inhibitor, full curve, poor fit] | – |
| CCn1c(SCC(=O)NCCc2ccccc2)nnc1-c1cccs1 | – | inactive: -6.05% |
| O=C(O)c1cccc(NC(=S)NC(=O)c2cccc(OCc3ccccc3)c2)c1 | – | inactive: 4.62% |
| O=C(C1CCN(Cc2ccc(Cl)cc2)CC1)N1CCN(C(c2ccccc2)c2ccccc2)CC1 | inconclusive [inhibitor, single point] | – |

| Structure (SMILES) | Potency | activity change, negative = inhibition |
| --- | --- | --- |
| CCOc1nnc(C)c2c(C)n(-c3cccc(Cl)c3)nc12 | inconclusive [inhibitor, single point] | – |
| CCOc1ccccc1NC(=O)CSc1nnc(C2CC2)n1CC | – | inactive: 5.17% |
| CCOc1ccc(C2=C(C=C(C#N)C#N)C(c3ccccc3)c3ccccc3O2)cc1 (configuration not stated) | active: 3.7 µM | – |
| Cc1ccc(C)c(Cn2c3ccccc3c3cnn(CC(=O)NCCCN4CCOCC4)c(=O)c32)c1 | active: 13.1 µM | – |
| CCOc1nc(C)cc(C)c1S(=O)(=O)c1cccc(Cl)c1 | inconclusive [inhibitor, full curve, poor fit] | – |
| CCOC(=O)N1CCC(NC(=O)c2cc(C(=O)Nc3cccc(C(F)(F)F)c3)ccc2CO)CC1 | – | inactive: -9.82% |
| Cc1ccc(-c2nc3ccc([N+](=O)[O-])cc3[nH]2)cc1 | – | inactive: 129% |
| COc1ccc(CN2CCN(CCCc3ccccc3)C(CCO)C2)cc1OC (configuration not stated) | inconclusive [inhibitor, full curve, poor fit] | – |
| CC(C)=C1C2CCC1C(C(=O)Nc1cc(C)cc(C)c1)C2C(=O)O (configuration not stated) | – | inactive: -9.91% |
| O=[N+]([O-])c1ccc(S(=O)(=O)N2CCC3(CC2)OCCN3S(=O)(=O)c2cccs2)cc1 | inconclusive [inhibitor, single point] | – |
| N#Cc1cccc(NC(=O)Cn2cnc(S(=O)(=O)N3CCCC3)c2)c1 | – | inactive: 21.3% |
| Cc1noc(/C=C/N(C)C)c1S(=O)(=O)N1CCCC(C(=O)N2CCCCC2)C1 (configuration not stated) | active: 9.28 µM | – |
| O=C(Nc1ccccc1C(F)(F)F)c1c(F)cccc1Cl | – | inactive: -2.65% |
| COc1cc2c(cc1OC)C1=NC(=O)CN1C(SCc1ccc(C)cc1)=N2 | inconclusive [inhibitor, single point] | – |
| COC(=O)c1c(-c2cccs2)csc1NC(=O)CN1CCOCC1 | inconclusive [inhibitor, single point] | – |
| COc1cc(OC)cc(C(=O)OC(C)C(=O)NC2CCCc3ccccc32)c1 (configuration not stated) | inconclusive [inhibitor, partial curve, poor fit] | – |
| O=C(/C=C/c1ccco1)Nc1ccc(CN2CCOCC2)cc1 | – | inactive: 226% |
| NS(=O)(=O)c1ccc(NC(=S)NCc2ccc3c(c2)OCO3)cc1 | – | inactive: 6.65% |
| COc1ccccc1C(=O)Nc1ccccc1N1CCN(C(=O)c2ccc(Cl)cc2)CC1 | active: 8.28 µM | – |
| CCOc1ccc(CCNC(=O)C2CC(=O)N(Cc3ccc(C)cc3)C2)cc1OCC (configuration not stated) | inconclusive [inhibitor, partial curve, poor fit] | – |
| O=C(Nc1cccc(Cl)c1)OCc1cn(-c2ccc(Cl)cc2)nn1 | inconclusive [inhibitor, partial curve, poor fit] | – |
| COc1ccc(C(C#N)N2N=C(C)CC2(C)C)cc1OC (configuration not stated) | inconclusive [inhibitor, partial curve, poor fit] | – |
| Cc1cccc(C)c1OCCCCN1CCNCC1 | inconclusive [inhibitor, partial curve, poor fit] | – |

| Structure (SMILES) | Potency | activity change, negative = inhibition |
| --- | --- | --- |
| COc1ccc2nc(C)cc(NCc3ccc(F)cc3)c2c1 | inconclusive [inhibitor, partial curve, poor fit] | – |
| Cc1nn(-c2ccccc2)c2c1C1(C(=O)N(C)c3ccccc31)C(C#N)=C(N)O2 (configuration not stated) | inconclusive [inhibitor, single point] | – |
| COc1ccc(C2CC(c3ccccc3)=NN2C(=O)COC(=O)c2nc3nccc(C)n3n2)cc1 (configuration not stated) | – | inactive: 0.597% |
| O=C(Nc1ncc(Cc2cccc(Cl)c2)s1)C1=NCCN1 | inconclusive [inhibitor, single point] | – |
| Cc1ccc(C)c(-n2c(SCC(=O)NC(C(=O)O)C(C)C)nnc2-c2cccc(Cl)c2)c1 (configuration not stated) | inconclusive [inhibitor, single point] | – |
| CCOC(=O)c1sc(NC(=O)CN2C(=O)C3CC=CCC3C2=O)nc1C (configuration not stated) | – | inactive: -1.16% |
| COc1ccc(/C=C/C(=O)NC(=S)Nc2cc3oc4ccccc4c3cc2OC)cc1 | – | inactive: -3.71% |
| COc1ccc(NC(=O)C(CC(C)C)NC(=O)C2CCCCC2)c(OC)c1 (configuration not stated) | – | inactive: 18.5% |
| Cc1noc(C)c1CSc1nc2ccccc2n1CCc1ccccc1 | inconclusive [inhibitor, partial curve, poor fit] | – |
| CCN(CC)S(=O)(=O)c1ccc(/C=C/C(=O)N(c2ccccn2)C2CCCCC2)cc1 | – | inactive: -5.01% |
| Cc1ccc(N(NC(=O)C(O)(c2ccccc2)c2ccccc2)C(=O)CCl)cc1 | active: 5.22 µM | – |
| CCOc1ccc(S(=O)(=O)N2CCC(C(=O)NCc3ccncc3)CC2)cc1Cl | – | inactive: 7.44% |
| COCCn1cnc2c1c(=O)n(CC(=O)OCC(=O)NCCCc1ccccc1)c(=O)n2Cc1ccccc1 | inconclusive [inhibitor, partial curve] | – |
| CSc1nc2ccc(NS(=O)(=O)c3ccc([N+](=O)[O-])cc3)cc2s1 | – | inactive: 69.3% |
| CC(=O)N1CCc2cc(S(=O)(=O)CCC(=O)Nc3ccccc3F)ccc21 | – | inactive: 5.96% |
| CCCCCn1c(=O)[nH]c2cc(C(=O)N3CCN(c4ccc(C(C)=O)cc4)CC3)ccc2c1=O | inconclusive [inhibitor, single point] | – |
| Cc1ccc(S(=O)(=O)N(CC(=O)Nc2ccc(Cl)c([N+](=O)[O-])c2)C2CCCCC2)cc1 | inconclusive [inhibitor, partial curve, poor fit] | – |
| Cc1ccc(C)c(Cn2c3ccccc3c3cnn(CC(=O)NCCCN4CCCCC4)c(=O)c32)c1 | inconclusive [inhibitor, partial curve] | – |
| Cc1ccc(N(C(=O)c2snc(C(N)=O)c2N)C(C(=O)NCC2CCCO2)c2ccc3ncccc3c2)cc1 (configuration not stated) | inconclusive [inhibitor, single point] | – |
| CC(=O)N1N=C(c2ccccc2)CC1c1ccccc1[N+](=O)[O-] (configuration not stated) | inconclusive [inhibitor, full curve, poor fit] | – |
| CCc1ccc(N2CN(Cc3ccco3)CNC2=S)cc1 | inconclusive [inhibitor, partial curve, poor fit] | – |
